Reference: paper PMC9911399, “Two distinct binding modes provide the RNA-binding protein RbFox with extraordinary sequence specificity”
Where a chain is given by its changes, count along the chain named. The list shows a part of the results.

T1: RBFOX1 RRM RbFoxmut (Fox-RRM*) (Homo sapiens, UniProt Q9NWB1 109-208, R118D;E147R;N151S;E152T)
T1 sequence: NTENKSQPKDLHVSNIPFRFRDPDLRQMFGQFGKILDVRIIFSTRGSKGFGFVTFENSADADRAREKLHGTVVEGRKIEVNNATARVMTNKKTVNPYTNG

B1: GUUACGG (DNA:RNA)
RNA: GGGAGACCGGAAUUCAGAUUGUCCGUUACGGUUAAAUCCCGUCGUAGCCACCA
DNA 1: CAATCTGAATTCCGGTCTCCC
DNA 2: TGGTGGCTACGACGGGATT
B2: CCAAACG (DNA:RNA)
RNA: B1 RNA with G25C, U26C, U27A, C29A, G30C
DNA 1: CAATCTGAATTCCGGTCTCCC
DNA 2: TGGTGGCTACGACGGGATT
B3: CCGCGCC (DNA:RNA)
RNA: GGGAGACCGGAAUUCAGAUUGUCCCCGCGCCUUAAAUCCCGUCGUAGCCACCA
DNA 1: CAATCTGAATTCCGGTCTCCC
DNA 2: TGGTGGCTACGACGGGATT
B4: CAGACAU (DNA:RNA)
RNA: B3 RNA with C26A, C28A, G29C, C30A, C31U
DNA 1: CAATCTGAATTCCGGTCTCCC
DNA 2: TGGTGGCTACGACGGGATT
B5: UUGUGCG (DNA:RNA)
RNA: B3 RNA with C25U, C26U, C28U, C31G
DNA 1: CAATCTGAATTCCGGTCTCCC
DNA 2: TGGTGGCTACGACGGGATT
B6: GAUAACC (DNA:RNA)
RNA: B1 RNA with U26A, C29A, G30C, G31C
DNA 1: CAATCTGAATTCCGGTCTCCC
DNA 2: TGGTGGCTACGACGGGATT
B7: CGGUAGU (DNA:RNA)
RNA: B3 RNA with C26G, C28U, G29A, C30G, C31U
DNA 1: CAATCTGAATTCCGGTCTCCC
DNA 2: TGGTGGCTACGACGGGATT
B8: AGUGAAU (DNA:RNA)
RNA: B1 RNA with G25A, U26G, A28G, C29A, G30A, G31U
DNA 1: CAATCTGAATTCCGGTCTCCC
DNA 2: TGGTGGCTACGACGGGATT
B9: GUCGCCC (DNA:RNA)
RNA: B1 RNA with U27C, A28G, G30C, G31C
DNA 1: CAATCTGAATTCCGGTCTCCC
DNA 2: TGGTGGCTACGACGGGATT
B10: GUUUGCC (DNA:RNA)
RNA: B3 RNA with C25G, C26U, G27U, C28U
DNA 1: CAATCTGAATTCCGGTCTCCC
DNA 2: TGGTGGCTACGACGGGATT
B11: AAAUGUC (DNA:RNA)
RNA: B3 RNA with C25A, C26A, G27A, C28U, C30U
DNA 1: CAATCTGAATTCCGGTCTCCC
DNA 2: TGGTGGCTACGACGGGATT
B12: UCACAGG (DNA:RNA)
RNA: B3 RNA with C25U, G27A, G29A, C30G, C31G
DNA 1: CAATCTGAATTCCGGTCTCCC
DNA 2: TGGTGGCTACGACGGGATT
B13: AUUUGAA (DNA:RNA)
RNA: B1 RNA with G25A, A28U, C29G, G30A, G31A
DNA 1: CAATCTGAATTCCGGTCTCCC
DNA 2: TGGTGGCTACGACGGGATT
B14: GUGCACG (DNA:RNA)
RNA: B3 RNA with C25G, C26U, G29A, C31G
DNA 1: CAATCTGAATTCCGGTCTCCC
DNA 2: TGGTGGCTACGACGGGATT
B15: AAAUCCU (DNA:RNA)
RNA: B3 RNA with C25A, C26A, G27A, C28U, G29C, C31U
DNA 1: CAATCTGAATTCCGGTCTCCC
DNA 2: TGGTGGCTACGACGGGATT
B16: CCCGUCA (DNA:RNA)
RNA: B3 RNA with G27C, C28G, G29U, C31A
DNA 1: CAATCTGAATTCCGGTCTCCC
DNA 2: TGGTGGCTACGACGGGATT
B17: GCCAUGG (DNA:RNA)
RNA: B1 RNA with U26C, U27C, C29U
DNA 1: CAATCTGAATTCCGGTCTCCC
DNA 2: TGGTGGCTACGACGGGATT
B18: AUCGAGG (DNA:RNA)
RNA: B1 RNA with G25A, U27C, A28G, C29A
DNA 1: CAATCTGAATTCCGGTCTCCC
DNA 2: TGGTGGCTACGACGGGATT
B19: CUGCUCU (DNA:RNA)
RNA: B3 RNA with C26U, G29U, C31U
DNA 1: CAATCTGAATTCCGGTCTCCC
DNA 2: TGGTGGCTACGACGGGATT
B20: UAAAGUU (DNA:RNA)
RNA: B3 RNA with C25U, C26A, G27A, C28A, C30U, C31U
DNA 1: CAATCTGAATTCCGGTCTCCC
DNA 2: TGGTGGCTACGACGGGATT
B21: AAUUGCA (DNA:RNA)
RNA: B3 RNA with C25A, C26A, G27U, C28U, C31A
DNA 1: CAATCTGAATTCCGGTCTCCC
DNA 2: TGGTGGCTACGACGGGATT
B22: GAGCGCG (DNA:RNA)
RNA: B3 RNA with C25G, C26A, C31G
DNA 1: CAATCTGAATTCCGGTCTCCC
DNA 2: TGGTGGCTACGACGGGATT
B23: ACCCAAG (DNA:RNA)
RNA: B3 RNA with C25A, G27C, G29A, C30A, C31G
DNA 1: CAATCTGAATTCCGGTCTCCC
DNA 2: TGGTGGCTACGACGGGATT
B24: ACACUGA (DNA:RNA)
RNA: B3 RNA with C25A, G27A, G29U, C30G, C31A
DNA 1: CAATCTGAATTCCGGTCTCCC
DNA 2: TGGTGGCTACGACGGGATT
B25: AUGUAGU (DNA:RNA)
RNA: B1 RNA with G25A, U27G, A28U, C29A, G31U
DNA 1: CAATCTGAATTCCGGTCTCCC
DNA 2: TGGTGGCTACGACGGGATT
B26: AUCUUGU (DNA:RNA)
RNA: B1 RNA with G25A, U27C, A28U, C29U, G31U
DNA 1: CAATCTGAATTCCGGTCTCCC
DNA 2: TGGTGGCTACGACGGGATT
B27: CAUCAAC (DNA:RNA)
RNA: B3 RNA with C26A, G27U, G29A, C30A
DNA 1: CAATCTGAATTCCGGTCTCCC
DNA 2: TGGTGGCTACGACGGGATT
B28: UAGCGCG (DNA:RNA)
RNA: B3 RNA with C25U, C26A, C31G
DNA 1: CAATCTGAATTCCGGTCTCCC
DNA 2: TGGTGGCTACGACGGGATT
B29: AGGGAUC (DNA:RNA)
RNA: B3 RNA with C25A, C26G, C28G, G29A, C30U
DNA 1: CAATCTGAATTCCGGTCTCCC
DNA 2: TGGTGGCTACGACGGGATT
B30: AUAGUUG (DNA:RNA)
RNA: B1 RNA with G25A, U27A, A28G, C29U, G30U
DNA 1: CAATCTGAATTCCGGTCTCCC
DNA 2: TGGTGGCTACGACGGGATT
B31: CCUUGCC (DNA:RNA)
RNA: B3 RNA with G27U, C28U
DNA 1: CAATCTGAATTCCGGTCTCCC
DNA 2: TGGTGGCTACGACGGGATT

target: T1, RBFOX1 RRM RbFoxmut (Fox-RRM*); assay: EMSA; HiTS-Eq, 1 nM pool, 10 min; buffer printed only for the single-RNA assays: 10 mM Tris pH 7.5, 150 mM NaCl, 3.4 mM EDTA, 0.001% NP-40, 30 C; conditions: tags: His6 N-terminal (pET28a); label: 5' 32P
Procedure, shortened: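 Purified RbFox RRM (wild type or mutant) was equilibrated for 10 min in 50 µL with 1 nM of a 5′-radiolabelled pool of RNA with 7 randomized nucleotides, its flanks annealed to DNA oligonucleotides, across increasing protein concentrations. Free RNA was separated by 8% native PAGE, excised, reverse-transcribed, PCR-barcoded and sequenced on an Illumina HiSeq 2500. Relative association constants came from read-count changes of each variant against the control reaction, normalised to the cognate motif.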

Row | Binder | binding signal
1 | B1 | 0.0691 KA relative to UGCAUGU
2 | B2 | 0.138 KA relative to UGCAUGU
3 | B3 | 0.184 KA relative to UGCAUGU
4 | B4 | 0.0629 KA relative to UGCAUGU
5 | B5 | 0.274 KA relative to UGCAUGU
6 | B6 | 0.0699 KA relative to UGCAUGU
7 | B7 | 0.138 KA relative to UGCAUGU
8 | B8 | 0.135 KA relative to UGCAUGU
9 | B9 | 0.0754 KA relative to UGCAUGU
10 | B10 | 0.25 KA relative to UGCAUGU
11 | B11 | 0.145 KA relative to UGCAUGU
12 | B12 | 0.09 KA relative to UGCAUGU
13 | B13 | 0.0832 KA relative to UGCAUGU
14 | B14 | 0.66 KA relative to UGCAUGU
15 | B15 | 0.0657 KA relative to UGCAUGU
16 | B16 | 0.0937 KA relative to UGCAUGU

Row | Binder | binding signal
17 | B17 | 0.12 KA relative to UGCAUGU
18 | B18 | 0.0934 KA relative to UGCAUGU
19 | B19 | 0.0976 KA relative to UGCAUGU
20 | B20 | 0.072 KA relative to UGCAUGU
21 | B21 | 0.181 KA relative to UGCAUGU
22 | B22 | 0.127 KA relative to UGCAUGU
23 | B23 | 0.0886 KA relative to UGCAUGU
24 | B24 | 0.0748 KA relative to UGCAUGU
25 | B25 | 0.199 KA relative to UGCAUGU
26 | B26 | 0.153 KA relative to UGCAUGU
27 | B27 | 0.0636 KA relative to UGCAUGU
28 | B28 | 0.13 KA relative to UGCAUGU
29 | B29 | 0.12 KA relative to UGCAUGU
30 | B30 | 0.174 KA relative to UGCAUGU
31 | B31 | 0.252 KA relative to UGCAUGU
